Test results as given in the supplement of paper PMC12632987.
The full ranking holds about 4,500 sequences; the median of “median log2 fold change of GCK-ALFA target abundance (FLAG IP / Myc IP barcode read proportion)” is about 0.078, and the lowest 2% start at about -0.6. Some of the results follow.

B1: GBRAP_26_5464 (protein)
chain: MEEAFREASDRVDEIAAKLSNPEAAAAVRAEADTILLELEERIEAGEDIEKAVKEAEEEFLKEAREIGKEEGLPEEEIERLEKELSEVFKELEERLKKAK
B2: GBRAP_14_3767 (protein)
chain: MEKKKEIVRETAEEIVALLAEIAPEKAAEFRAAVEEVVEETLKRAEETGDWEEAAVEGEDRLVARIGAITADLPAARRAELQAVVRVLFGQAILEIDEEE
B3: GBRAP_184_5181 (protein)
chain: MLLERTLRFADVAELEAKLAEIAAEVAGTHADLVLHVEAEKVTVEMAEALMDGVAAIKAAGYARRILVDIDGDVSEEVADVLVEKAREAGVQVALALEEE
B4: GBRAP_26_5469 (protein)
chain: IEEGLDKLLEELEKALDELLDPETAAAAKAEVSTIIYEAEEEIEKNKNNYEEIKKILEEMKKEIEEELKTLGVPEDKREKLVKVVEEEIEKILEELEKEK
B5: GBRAP_45_5809 (protein)
chain: SEEYKEALEKALAKLEEALKQAKKLLEKDPEAFQPIVDKLEEIKKLLLENPEDLEAAEEAARLLREALKEALANPGTTAEFAELLLEALNYLEDVANLLK
B6: GBRAP_35_5516 (protein)
chain: STDDTIVEMLAATLEDAVLAVDDLPADTLATVVAQLARAAREVIEEEKDNIEGAKKLAKELEALLAAVRARGLDDPALQAAAAQLEEVLKLAREVAEKEK
B7: GBRAP_160_4025 (protein)
chain: SASVAAIVADFREDLELILAHADEISEATLAGAIRTAIGQAILDVHESPDLADLTREEVDALDAQADAVAARIAAGDPAERRAAAAELAAAVEAAIKKAA
B8: GBRAP_14_3859 (protein)
chain: MEALIKAVEETAEELKKFIKEVAPEHAEEIKKKVEELAKKIIKKIKEENLNIEEVEELVDEAAEELGKYLKEKGYVSDTEIAAIKAHLLSTMLLKLEEIE
B9: GBRAP_160_4230 (protein)
chain: SETVEKIVEITREELLEALELIEGETPEERKVVLDVTVGRILLEVDEIEEATEEMEEVVDEEVEEIAERLLAAEDATPEEKRAIVEEGVERLRERLEEVE
B10: GBRAP_11_2774 (protein)
chain: EKERLEKIAAKAKEAIALVDALIAAGTTDAALQAALAAALAELAKLVEALDDADLKALVAIAQEEWEAAQADPENAEAHLKRMRAALRVLEGQVLLLLEE
B11: GBRAP_11_2691 (protein)
chain: KKEKLKKGAELAEELAAVLAELLAVGVDDAELRARAKKLLEELLKLTKEHGDEGDKKLTEILKEEWEKALADPANAAAHVQNALAIARVLSGDYLLKIEE
B12: GBRAP_166_4963 (protein)
chain: SQEELVEELKALIEEKAEQAKTADPEEKLELLAEVAEAIREAREAGLSEEDLRELIRRTLELFSAVGLSLSTVEGALTILADLDEEEIDILEEAVKEVKA
B13: GBRAP_184_5238 (protein)
chain: KVLEVTVEAADAEELRAKLEAVFAEAEAAGARVRLDVLVEELTPEKVDVLTEEIARMAAAGLLDLVEVTSSTPIAEEHIDRLVAAADAAGVRLVIAEPDE
B14: GBRAP_11_2735 (protein)
chain: KKEKLKEVRELAEEAARAAAELLERGVDDEELRRRIEELLREIEEKVRELEDEFLRELVEIAREDFERSLADPENAEEHLARARAALRVLAGQVQLLIDE
B15: GBRAP_160_4483 (protein)
chain: SEKVEEAKEEVEEIIEEAVEAIKEAEPEDRPKIGRAYAGDIAMEARELGVVDDEEEEELLKLAEEGMEKIVKASEKGPEEMEKAAKELKKELKEFLKKKS
B16: GBRAP_160_4598 (protein)
chain: SEEVEKLIKEIDEIVEEAKKLIEGQTKEEQIAIIKVAMGEILLLLDLSEIVSDETEEKADEIADKLIKTIESNPDLTLEEIKALIDKAREEIKKAIKEDA
B17: GBRAP_160_4055 (protein)
chain: AEEKERLIADVDAAEAAILAVIDEEGAEAAAVMADGEFGAIIMEAAELPTASDELVDALEAIRDALVAGLRANAAASPAELKALVRAAAAAAKEAIKKHY
B18: GBRAP_128_3267 (protein)
chain: MNPEVVAYAEAFVEKLKAAGPEEAKKLADELMEKLKTMSLEEVEQFVEVLEKKLKELSVEKLEILADAARKHRDEFSPEKANLVAGLEVEALNEAVEKEE
B19: GBRAP_11_2850 (protein)
chain: EEEKLKKVAKLAEELEKLLKQLIAAGTTDAALIAEVKAALEKLLKAAKELGDENLIELAEAAKEDVAAAQADPATRAQHFNNALAFVQALLGEVLLKLEE
B20: GBRAP_11_2751 (protein)
chain: KKEKLKEIAKLAEEAAELVEKLIEEGYDDEELRKELEEKLKELRKKVKEYGDKSLEKLVEIAEENFKKALEDPENAEHYLKLALAALRVLEGQVLLLIEE
B21: GBRAP_78_6667 (protein)
chain: EVEELVDKALEALGRAERLALELPEDLRNELLDLLVDAASYLLESEEEGFDLELLKKALEELKKALELVEEANNPELEPLRKELKEAIKLLEKAIKAKEE
B22: GBRAP_184_5142 (protein)
chain: TLLRVYIEARTVEEALAGARAAFEAARAAGARLALYVDAEGLSVEEVAELARALRALAAELGLPDAQIVLHVEADEEEADEILKAADAAGVRAVIALEEE
B23: GBRAP_153_3945 (protein)
chain: MEEREEKLERALELIEKIKETGGDPELIREFARLVKELSEEDKLKVARELNRLSEELVYKIFKVLATEEGFSVEELLAMTTELDLEHEAAALEAIVEAQK
B24: GBRAP_184_5291 (protein)
chain: KVKRVVIEAETEEEALKQINAAAEEAKAEGVKLELDLFLKNVSVEGFKKIAEKLKKLKDEGIIKDAIVDLLDERSEEEVDKFVEIADKAGIRLVVALSDE
B25: GBRAP_78_6666 (protein)
chain: ELEKIIDETLELLTEVIRASKSLPPEVQEAVLDEAVEAATELEEIEEEGPNLEELEEAIKHLEKLLELLEKNKSPELEPLIEKLKKQIEKLKKAKEELEK
B26: GBRAP_80_6798 (protein)
chain: AEERLKEALKRLEELDPEIAKRVKEIVEKAKSLGVSDEDLAEFVEAIVKLAEKDKEKAREIVEELEEDLEEEVERGNTANATAVIRVHAGDALLEVEELE
B27: GBRAP_11_2739 (protein)
chain: EKEKLKKIAELAEKAARLVEELIREGVDNEELLKEAEKALEELLKAVKEYGDEFLQKLAELAKEDFEKALEDPENAEEYLRNAAATLRVLEGQVLLKIEE
B28: GBRAP_52_6162 (protein)
chain: MEERAREYAERVLAAVRAGDEEELERLLREIAETLSEEEIELLLEIIAERVPELSPEDAERVVEAAIRLEDLGIEAGKNPELLSYQLARVAAAAYARLQA
B29: GBRAP_160_4422 (protein)
chain: GELVEEVREILEEGRELVVELVEEGEREEALAAARVTAGEVLLTVDSDERVSEEAEEEIDEILDETIETLEENPDASPEEVREILEEAEEEILEVLEEGL

Biological target: GABARAP, O95166
Assay: median log2 fold change of GCK-ALFA target abundance (FLAG IP / Myc IP barcode read proportion) (log2 ratio); each designed protein is fused to an ALFA-tag nanobody in HEK293 cells to bring the named protein to FLAG-tagged glucokinase (GCK); Myc marks an untargeted standard; higher = target protein stabilised (more abundant)
Settings: target protein: 3xFLAG-MCP-GCK-ALFA reporter; HEK293 landing pad (RPLP)
Summary of the method: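 HEK293 landing-pad cells received a recombined binder library fused to the ALFA nanobody and were induced with 2 μg mL^−1 doxycycline, then transfected with a plasmid encoding a FLAG-tagged target and a Myc-tagged standard. Lysates were collected after 48 h for anti-FLAG and anti-Myc immunoprecipitation, and the circular RNA barcodes were reverse transcribed, amplified and sequenced. Target abundance for each binder is the median log2 ratio of FLAG to Myc barcode read proportions. Barcodes had to reach a proportion of at least 10^−7 in both replicates, each binder needed at least 3 barcodes per replicate, a pseudocount of 10^−6 was applied, and the two replicates were pooled.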

GABARAP, O95166, sequence (O95166 whole entry, the tested form may be a part): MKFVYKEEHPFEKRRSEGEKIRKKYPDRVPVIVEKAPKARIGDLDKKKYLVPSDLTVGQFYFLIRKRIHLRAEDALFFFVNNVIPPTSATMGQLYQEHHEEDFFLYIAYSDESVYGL

First: B1
Second: B2
The “median log2 fold change” value of the first is higher: 0.274 for the first, -0.172 for the second.

B3 and B4 are within 0.2 log units of each other in “median log2 fold change” value: 0.0339 for the first, -0.139 for the second.

First: B5
Second: B6
The “median log2 fold change” value of the first is higher: 0.329 for the first, -0.336 for the second.

B7 and B8 are within 0.2 log units of each other in “median log2 fold change” value: 0.0208 for the first, 0.181 for the second.

Going from B9 to B10, the “median log2 fold change” value rises from -0.166 to 0.131.

Going from B11 to B12, the “median log2 fold change” value falls from -0.0665 to -0.331.

Going from B13 to B14, the “median log2 fold change” value falls from 0.168 to -0.0478.

B15 and B16 are within 0.2 log units of each other in “median log2 fold change” value: 0.234 for the first, 0.0945 for the second.

B17 and B18 are within 0.2 log units of each other in “median log2 fold change” value: 0.183 for the first, 0.119 for the second.

Going from B19 to B20, the “median log2 fold change” value falls from 0.272 to 0.0472.

B21 and B22 are within 0.2 log units of each other in “median log2 fold change” value: 0.104 for the first, -0.0391 for the second.

First: B23
Second: B24
The “median log2 fold change” value of the first is higher: 0.142 for the first, -0.0899 for the second.

First: B25
Second: B26
The “median log2 fold change” value of the first is higher: 0.274 for the first, -0.212 for the second.

Compared with B27, B28 is lower in “median log2 fold change” value: 0.259 for the first, -0.0331 for the second.

With B29 the “median log2 fold change” value was -0.215.
